# Measurements reported in PubChem BioAssay AID360 (National Center for Advancing Translational Sciences (NCATS), 2006).
# Out of some 48,000 compounds screened, about 550 (1.1%) were called active. Not shown: some 4% with an inconclusive outcome. Cut-off read from the data, not from the text of the source: active = potency below about 15 µM; inconclusive = mostly about 16 µM to 33 µM; inactive = weaker than that. The list shows a part of the results.
# Molecular target: Lysosomal acid glucosylceramidase (Homo sapiens) (UniProt P04062)
# Chain of UniProt P04062 (P04062 whole entry, looked up): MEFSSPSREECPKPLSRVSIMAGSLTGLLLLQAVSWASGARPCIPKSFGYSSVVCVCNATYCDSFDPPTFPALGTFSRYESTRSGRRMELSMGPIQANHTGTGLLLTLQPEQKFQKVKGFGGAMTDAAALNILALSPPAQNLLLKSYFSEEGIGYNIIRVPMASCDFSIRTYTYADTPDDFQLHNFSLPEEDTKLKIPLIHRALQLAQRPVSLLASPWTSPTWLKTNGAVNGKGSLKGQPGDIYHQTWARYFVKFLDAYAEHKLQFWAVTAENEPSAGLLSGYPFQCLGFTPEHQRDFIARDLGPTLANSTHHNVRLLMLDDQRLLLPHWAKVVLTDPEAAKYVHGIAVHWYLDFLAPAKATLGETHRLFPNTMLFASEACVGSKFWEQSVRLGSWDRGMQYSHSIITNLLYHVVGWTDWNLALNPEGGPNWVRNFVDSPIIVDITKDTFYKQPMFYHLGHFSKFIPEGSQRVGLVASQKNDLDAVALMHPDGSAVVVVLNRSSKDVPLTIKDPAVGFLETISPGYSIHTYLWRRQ
# Assay: Glucocerebrosidase;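 note: the screen sought inhibitors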
# Settings: purified enzyme, resorufin glucoside fluorescence (screen aimed at inhibitors), 20 min
# In short: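 Normal human glucocerebrosidase (0.2 nM final) was assayed with resorufin β-D-glucopyranoside (30 uM final) in 50mM citric acid/KH2PO4, 10mM sodium taurocholate, 0.01% tween-20, pH 5.9. Compounds were titrated; fluorescence (Ex 548, Em 600) read after 20 min at RT.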
# Potency is the fitted concentration of half-maximal effect.
row,SMILES,Potency
1,O=C(Nc1ccc(-c2nc3ncccc3o2)cc1)c1ccc(Br)o1,inactive: > 76.9 µM
2,O=C(Nc1nncs1)c1ccccc1NS(=O)(=O)c1cccs1,inactive: > 15.4 µM
3,O=C(Cn1ncc2c(=O)oc3ccccc3c21)Nc1nc2ccccc2s1,inactive: > 76.9 µM
4,COCCNC(=O)C(c1ccc(C)cc1)N(C(=O)CCC(=O)Nc1ccccn1)C1CCCC1 (stereo not given),inactive: > 76.9 µM
5,COc1cc(C2c3c(oc4ccccc4c3=O)C(=O)N2Cc2cccnc2)cc(OC)c1OC (stereo not given),inactive: > 76.9 µM
6,Cc1ccc(NC(=O)CCCCCC2NC(=O)NC2C)cc1 (stereo not given),inactive: > 76.9 µM
7,Cc1cc(C)c(NC(=O)CCCOC(=O)C2=COCCO2)c(C)c1,inactive: > 76.9 µM
8,Cn1c(=O)n(CC(=O)Nc2cccnc2)c2ccccc21,inactive: > 76.9 µM
9,CCCC(=O)Nc1ccc(S(=O)(=O)Nc2cc(C)nc(C)n2)cc1,inactive: > 76.9 µM
10,Cc1ccc(C(=O)N2CCOCC2)cc1Cl,inactive: > 76.9 µM
11,CCOC(=O)c1cc(=O)n2[nH]c(-c3ccc(C)cc3)cc2n1,inactive: > 76.9 µM
12,Cc1ccc(-n2c(-c3ccncc3)nnc2-c2ccco2)cc1,inactive: > 76.9 µM
13,CCOC(=O)N1CCN(CCC(=O)c2ccc(Cl)cc2)CC1,inactive: > 76.9 µM
14,O=c1cc(-c2ccccc2)c2c([nH]1)CCCC2,inactive: > 76.9 µM
15,N=c1n(CCN2CCCC2)c2ccccc2n1CC(O)c1ccco1 (stereo not given),inactive: > 76.9 µM
16,Cc1cc(Cl)ccc1OCCCC(=O)N1CCOCC1,inactive: > 76.9 µM
17,CS(=O)(=O)N1CCCC(C(=O)NCc2ccc(F)cc2Cl)C1 (stereo not given),inactive: > 76.9 µM
18,Cc1[nH]n(-c2ccccc2)c(=O)c1/C=N/c1ccccn1,inactive: > 76.9 µM
19,Cc1ccc2nc3sc(C(=O)N4CCOCC4)c(N)c3cc2c1,inactive: > 76.9 µM
20,CCOC(=O)C1CCN(CC(O)COc2ccc(C(=O)CC)cc2)CC1 (stereo not given),inactive: > 76.9 µM
21,CSc1ccccc1NC(=O)CN(Cc1ccc(Cl)cc1)S(C)(=O)=O,inactive: > 76.9 µM
22,Cc1nn(Cc2ccc(Cl)cc2)c(C)c1NC(=O)c1cc(-c2ccco2)on1,inactive: > 76.9 µM
23,Cn1c(=O)cc(OCCCC(=O)Nc2cccnc2)c2ccccc21,inactive: > 76.9 µM
24,O=C(CN1CCc2ccccc2C1)N1CCN(S(=O)(=O)c2ccccc2)CC1,inactive: > 76.9 µM

row,SMILES,Potency
1,O=C(Nc1ccccc1-c1nnn(CC(=O)N2CCCc3ccccc32)n1)c1ccco1,inactive: > 76.9 µM
2,CCn1nc(C(=O)OCC(=O)c2cc(C)n(Cc3cccs3)c2C)c2ccccc2c1=O,inactive: > 76.9 µM
3,COc1cc(-c2nnc3sc(C4CCCCC4)nn23)cc(OC)c1OC,active: 7 µM
4,CCOC(=O)C1CCCN(CC(=O)NC2CC2)C1 (stereo not given),inactive: > 76.9 µM
5,CCCn1c(SCCN2C(=O)c3ccccc3C2=O)n[nH]c1=O,inactive: > 76.9 µM
6,CC(=O)c1c(C)[nH]c(C(=O)N2CCCCCC2)c1C,inactive: > 76.9 µM
7,Cc1cccc(NC(=O)c2cc3c(n(-c4ccccc4)c2=O)CCCC3=O)n1,inactive: > 76.9 µM
8,CCn1nnc(NC(=O)COc2ccc(C3CCCCC3)cc2)n1,inactive: > 76.9 µM
9,O=C1CCCCCN1CSc1nc2ccccc2s1,inactive: > 76.9 µM
10,COC(=O)c1ccc(S(=O)(=O)NCc2cccc(OC)c2)n1C,inactive: > 76.9 µM
11,O=S(=O)(NCCOc1ccc(F)cc1)c1ccc2c(c1)OCCO2,inactive: > 76.9 µM
12,CCN1CCCC1CNS(=O)(=O)c1ccc(C(=O)Nc2ccccc2)cc1 (stereo not given),inactive: > 76.9 µM
13,CC(C)C1(C)C(=O)N=C2c3ccccc3C(=O)N21 (stereo not given),inactive: > 76.9 µM
14,CS(=O)(=O)N1CCCC(C(=O)NCc2ccccc2Cl)C1 (stereo not given),inactive: > 76.9 µM
15,CN1C(=S)SC(C)(C)C1NO (stereo not given),inactive: > 76.9 µM
16,COc1ccc(OC)c(NC(=O)CSc2nnc(N)s2)c1,inactive: > 76.9 µM
17,CC(C)C(OC(=O)c1cccs1)C(=O)NCc1ccco1 (stereo not given),inactive: > 76.9 µM
18,CCc1ccc(N2CCCn3c2nc2c3c(=O)n(CCN3CCOCC3)c(=O)n2C)cc1,inactive: > 76.9 µM
19,CCOc1ccc(NC(=O)c2ccccc2CO)cc1,inactive: > 76.9 µM
20,Cc1nc(NCCCn2ccnc2)c2oc3ccccc3c2n1,inactive: > 76.9 µM
21,O=C(CSc1ncn[nH]1)c1ccc2c(c1)OCCO2,inactive: > 76.9 µM
22,CC(=O)N1CCN(c2ccc(NC(=O)c3ccc(C(C)(C)C)cc3)cc2)CC1,inactive
23,Cc1ccc(S(=O)(=O)N2CCCC2C(=O)OCC(=O)Nc2ccc3c(c2)OCO3)cc1 (stereo not given),inactive: > 76.9 µM
24,COc1ccc(Cn2nnnc2C(c2cccs2)N2CCOCC2)cc1 (stereo not given),inactive: > 76.9 µM

row,SMILES,Potency
1,N#CC1=C(N)N(c2ccc(Br)cc2)C2=C(C(=O)CCC2)C1c1cccnc1 (stereo not given),inactive: > 76.9 µM
2,Cc1c(O)ccc2c3c(c(=O)oc12)CCCC3,inactive: > 76.9 µM
3,O=C(CSc1nnc(-c2cccs2)n1CC1CCCO1)c1cc2ccccc2o1 (stereo not given),inactive: > 76.9 µM
4,O=C(Cn1nnc(-c2ccccc2NC(=O)c2ccco2)n1)NC1CCCCC1,inactive: > 76.9 µM
5,COc1cccc(Nc2ncnc3c2cnn3C)c1,inactive: > 76.9 µM
6,O=C(CSc1ncnc2c1oc1ccccc12)NCC1CCCO1 (stereo not given),inactive: > 76.9 µM
7,CC(C)c1ccccc1N1CC(C(=O)O)CC1=O (stereo not given),inactive: > 76.9 µM
8,O=C(CCn1nnc(-c2cccs2)n1)N1CCc2ccccc2C1,inactive: > 76.9 µM
9,CCC(=O)Nc1ccccc1Oc1ccccc1,inactive: > 76.9 µM
10,CC(=O)Nc1sc(C)c(C)c1C(=O)OC1CCOC1=O (stereo not given),inactive: > 76.9 µM
11,Cc1ccnc(N2CCC(C(=O)Nc3ccc(Oc4ccccc4)cc3)CC2)n1,inactive: > 76.9 µM
12,CCOc1nc(C#N)nc(N2CCCCC2)n1,inactive: > 76.9 µM
13,FC(F)(F)c1ccccc1Nc1nccs1,inactive: > 76.9 µM
14,O=C1C2CCCN2C(c2ccc(Cl)cc2)N1c1nccs1 (stereo not given),inactive: > 76.9 µM
15,N#CCCCSc1nnc(-c2ccccn2)o1,inactive: > 76.9 µM
16,CC(C)CCN1C(=O)c2ccc(C(=O)NCC3CCCO3)cc2C1=O (stereo not given),inactive: > 76.9 µM
17,CCOC(=O)Nc1sc(=S)n(C)c1C,inactive: > 76.9 µM
18,CC1(c2ccccc2)NC(=O)N(CC(=O)N2CCOCC2)C1=O (stereo not given),inactive: > 76.9 µM
19,CCC(NC(=O)NCc1cccnc1)(C(F)(F)F)C(F)(F)F,inactive: > 76.9 µM
20,CCn1c(COc2cccc(C)c2)nnc1SCC(=O)Nc1cccc(C(=O)O)c1,inactive: > 76.9 µM
21,O=C(CSc1nc2ccccc2o1)NCc1n[nH]c(=O)c2ccccc12,inactive: > 76.9 µM
22,COc1cc(C(c2nnnn2C2CCCC2)N2CCN(C)CC2)cc(OC)c1OC (stereo not given),inactive: > 76.9 µM
23,CC(=O)C1=C(C)OC(N)=C(C#N)C1c1ccncc1 (stereo not given),inactive: > 76.9 µM
24,COCCCn1c(SCC(=O)N2CC(=O)Nc3ccccc32)nnc1-c1ccoc1C,inactive: > 76.9 µM

row,SMILES,Potency
1,CCN(CC)Cc1csc(C(N)=O)c1,inactive: > 76.9 µM
2,CCC1CCCCN1C(=O)CSc1nnc(-c2ccco2)o1 (stereo not given),inactive: > 76.9 µM
3,COCC(=O)NC1CCN(C(=O)Nc2ccc(Br)cc2)CC1,inactive: > 76.9 µM
4,Nc1cc(C(=O)O)ccc1Nc1ccc(F)c(F)c1,inactive: > 76.9 µM
5,CC1NC(=O)N(C)C2NC(=O)N(C)C(c3ccccc3)C12 (stereo not given),inactive: > 76.9 µM
6,O=S(=O)(c1ccccc1)N(Cc1nc(-c2ccccc2)no1)C1CCCCC1,inactive: > 76.9 µM
7,CCCS(=O)(=O)N1CCN(Cc2ccccc2OCC)CC1,inactive: > 76.9 µM
8,O=c1c2[nH]c3ccc(F)cc3c2ncn1CCCn1ccnc1,inactive: > 76.9 µM
9,Cn1c(=O)c2c(nc(N3CCOCC3)n2CC(=O)C23CC4CC(CC(C4)C2)C3)n(C)c1=O,inactive: > 76.9 µM
10,Cn1c(=O)c2c(nc(N3CCN(Cc4ccccc4)CC3)n2CCCc2ccccc2)n(C)c1=O,inactive: > 76.9 µM
11,O=C(NCCN1CCc2ccccc2C1)C1CC(=O)N(C2CCCC2)C1 (stereo not given),inactive: > 76.9 µM
12,OCc1nc2ccccc2n1CCCOc1ccc(Br)cc1,inactive
13,c1ccc2c(CNn3cnnc3)cccc2c1,inactive: > 76.9 µM
14,O=S(=O)(Nc1cnc2ccccc2c1)N1CCCCCC1,inactive: > 76.9 µM
15,Nc1ccccc1OCCOCCOc1ccccc1N,inactive: > 76.9 µM
16,N#Cc1ccc(OCc2nnc(SCC(=O)N3CCCc4ccccc43)n2-c2ccccc2)cc1,inactive
17,CC1CCN(CCNC(=O)c2ccc(NC(=O)C3CCCO3)cc2)CC1 (stereo not given),inactive: > 76.9 µM
18,O=C(NCCN1CCOCC1)c1ccccc1-c1ccccc1,inactive: > 76.9 µM
19,Cc1cc2cc(C)c3nnc(SCC(=O)NCc4ccco4)n3c2cc1C,inactive: > 76.9 µM
20,O=C(COC(=O)c1cnccn1)c1ccccc1,inactive: > 76.9 µM
21,O=C(CC1SCCNC1=O)Nc1cc(Cl)cc(Cl)c1 (stereo not given),inactive: > 76.9 µM
22,CCN(CC)CCNC(=O)c1ccc2c(=O)n(CCc3ccccc3)c(=O)[nH]c2c1,inactive: > 76.9 µM
23,COc1ccc(CCNC(=O)CCC(=O)N2CCN(S(=O)(=O)c3ccccc3)CC2)cc1OC,inactive: > 76.9 µM
